From PubChem BioAssay AID686978 (National Center for Advancing Translational Sciences (NCATS), 2013)
The whole screen tested about 420,000 compounds, of which about 64,000 (15%) were called active. Inconclusive means that the source gave no clear call. Such entries were picked first, then a sample of the others. The call rests on the fitted dose curve; in most records, active means well fitted inhibition curve with a large enough effect; inconclusive means small, poorly fitted or top-dose-only effect; inactive means flat fitted curve, though single readings scatter. No potency is given beside an inconclusive call; the fits are too rough.
On the % scale 0 is the no-effect control and ±100 the full control effect; potency means the concentration at half of the fitted maximal effect; tags describe the fitted curve by direction and shape.

Assay: qHTS for Inhibitors of human tyrosyl-DNA phosphodiesterase 1 (TDP1): qHTS in cells in absence of CPT; further: nearly all actives have a fitted effect of over 55% in size
Settings: DT40 Tdp1-/- hTDP1 cells, no CPT, ATP luminescence, 48 h; activity change, negative = growth inhibition: at 46.2 µM (top of the series) unless noted
Procedure, shortened: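 Growth kinetics read by CellTiter-Glo luminescence after ≥48 hr at 37 °C. Cells: DT40 Tdp1-/- stably carrying human TDP1, 400 per well, compound exposure in the absence of CPT (DMSO vehicle).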
With `Cc1c(-n2cc(C(=O)c3cc(F)ccc3O)cc(C#N)c2=O)c(=O)n(-c2ccccc2)n1C` the Potency was “inactive”.
For `Cn1c(NCCc2ccncc2)nc2cc(-c3cccc(Cl)c3)sc2c1=O`, the Potency was “inactive”.
In the case of `C1CCCCCC(NCCN2CCNCC2)CCCCC1`, the Potency was active: 2.59 µM.
For `Cc1ccc(CS(=O)(=O)c2ncc(Cl)c(C(=O)Nc3nc4ccc(F)cc4s3)n2)cc1`, the Potency was active: 2.59 µM.
For `CC(=O)Nc1cccc(Oc2cc(C#N)c(C#N)cc2N2CCOCC2)c1`, the Potency was inconclusive [inhibitor, partial curve].
With `Cc1ccc(C)c(N(CC(N)=O)S(C)(=O)=O)c1` the Potency was inconclusive [inhibitor, single point].
With `COc1ccc(NC(=O)C2c3ccccc3OCC(=O)N2Cc2ccc3c(c2)OCO3)cc1` (stereo not given) the activity change, negative = growth inhibition was inconclusive: -31% [inhibitor].
With `CCOC(=O)[C@]12CCCC=C1N(CCc1ccc(OC)c(OC)c1)C(=O)[C@H](CC(=O)N1CCSCC1)C2` the Potency was inconclusive [inhibitor, single point].
For `COC(=O)c1ccc(C(=O)OC)c(NC(=O)COC(=O)C2CCC(C(C)(C)C)CC2)c1` (stereo not given), the Potency was inconclusive [inhibitor, single point].
With `CN(C)c1ccc(P(=O)(Nc2ccccc2)N2CCOCC2)c(NC(=O)c2cccs2)c1` (stereo not given) the Potency was inconclusive [inhibitor, partial curve].
For `CCC(C)[C@H](NC(=O)c1cc2cc(Cl)ccc2n1C)C(=O)N1CCC(C(=O)O)CC1` (stereo not given in full), the Potency was “inactive”.
In the case of `O=C1c2ccccc2C(=O)N1CCCCN(C(=O)c1ccc(Cl)s1)c1ccc(Cl)cc1`, the Potency was active: 20.6 µM.
With `CCOC(=O)c1c(S(=O)(=O)NCC(=O)NCc2cccc(C)c2)c(C)n(C)c1C` the Potency was “inactive”.
In the case of `CS(=O)(=O)c1ccc(NCCN2CCOCC2)c([N+](=O)[O-])c1`, the Potency was “inactive”.
With `c1cc(-c2cc3c(o2)CCCC3OCCN2CCOCC2)cs1` (stereo not given) the Potency was inconclusive [inhibitor, single point].
For `O=C(c1ccco1)N1CCN(C(=O)c2[nH]c(C(F)(F)F)nc2-c2ccccc2)CC1`, the Potency was inconclusive [inhibitor, single point].
For `Cc1ccc(S(=O)(=O)NC(=O)COc2cc(C)ccc2C(C)C)cc1`, the Potency was “inactive”.
In the case of `COc1cccc(/C=C/C(=O)OCC(=O)NCC2CCCCC2)c1OC`, the Potency was “inactive”.
In the case of `COc1ccc(C(=O)Nc2ccccc2C(=O)N2CCCCCC2)cc1`, the Potency was “inactive”.
With `O=C(NC(=S)NNC(=O)c1ccccc1[N+](=O)[O-])c1ccc(Br)cc1` the Potency was “inactive”.
With `O=C1CCc2cc(S(=O)(=O)Nc3ccc(F)cc3)cc3c2N1CC3` the Potency was “inactive”.
With `CCc1ccc(CN(C(=O)c2oc3ccccc3c2C)C2CCS(=O)(=O)C2)cc1` (stereo not given) the Potency was active: 18.4 µM.
With `Cc1ccc(-c2csc(N3CCC(C(N)=O)(N4CCCCC4)CC3)n2)cc1` the Potency was active: 20.6 µM.
For `O=C(Nc1cccc(Cl)c1)Nc1ccc2c(c1)OCO2`, the Potency was active: 16.4 µM.
In the case of `COC(=O)c1c(NC(=O)C2CCCCC2)sc2c1CCN(C(C)C)C2`, the Potency was inconclusive [inhibitor, single point].
In the case of `CC(C)c1ccc(CC(=O)N2CCC2(C)C(=O)Nc2ccc3c(c2)OCCO3)cc1` (stereo not given), the Potency was inconclusive [inhibitor, single point].
In the case of `CCc1cc2c(COC(=O)CCNS(=O)(=O)c3cccc(C(F)(F)F)c3)cc(=O)oc2cc1O`, the Potency was inconclusive [inhibitor, single point].
For `COc1ccc(CN2C(=O)C(CC(=O)NC(c3ccccc3)c3ccccc3)CC(C(=O)N(C(C)C)C(C)C)=C2C)cc1` (stereo not given), the Potency was inconclusive [inhibitor, single point].
For `COC(=O)c1n[nH]nc1-c1ccccc1`, the Potency was “inactive”.
With `CCCCN(c1ccc(C(=O)OC)cc1)S(=O)(=O)c1ccccc1` the Potency was inconclusive [inhibitor, single point].
In the case of `CSc1ccccc1NC(=O)C1CCN(S(C)(=O)=O)CC1`, the Potency was “inactive”.
With `C#CCOc1ccc(/C=C2\SC(=S)N(Cc3cccnc3)C2=O)cc1` the Potency was active: 4.61 µM.
With `CC1(OC(=O)CCc2ccccc2)C(=O)C=C2C=C(c3ccc(C#N)cc3)N(C3CCCC3)C=C2C1=O` (stereo not given) the Potency was active: 14.6 µM.
For `CC1(c2nnnn2C2CCCCC2)CCC(=O)N1Cc1ccc2c(c1)OCO2` (stereo not given), the Potency was “inactive”.
With `c1ccc(Oc2ccccc2-c2cc(NCCc3cccnc3)n3nccc3n2)cc1` the Potency was inconclusive [inhibitor, single point].
With `O=C(CN1CCCCCC1)Nc1cc(C(F)(F)F)ccc1Cl` the Potency was inconclusive [inhibitor, partial curve].
With `Cc1ccc(N(CC(=O)NCc2ccccc2)C(=O)CCC(=O)Nc2ccccn2)c(C)c1` the Potency was inconclusive [inhibitor, single point].
With `Cn1c(N)c(C(=O)NCc2ccccc2Cl)sc1=S` the Potency was inconclusive [inhibitor, single point].
With `Oc1c(Br)cccc1/C=N/c1ncn[nH]1` the Potency was “inactive”.
With `CN(CCCC1CCCC1)C(=O)CC1C(=O)NCCN1Cc1cccc(F)c1F` (stereo not given) the Potency was inconclusive [inhibitor, single point].
In the case of `CC(=O)N(c1ccccc1C)S(=O)(=O)c1ccc(Cl)cc1`, the Potency was “inactive”.
With `Cc1cc(NC(=O)NC(=O)c2ccccc2NC(=O)CN(C)C)ccc1Oc1ncc(Br)cn1` the Potency was active: 4.11 µM.
With `Cn1c(SCc2cccc(F)c2)nnc1-c1cnccn1` the Potency was “inactive”.
For `CCN(CC)c1ccc2cc(-c3nc(-c4ccccc4F)no3)c(=O)oc2c1`, the Potency was inconclusive [inhibitor, partial curve].
For `Cn1cccc1C(=O)NNC(=O)COc1ccccc1Cl`, the Potency was “inactive”.
In the case of `Cc1cc(C)c(S(=O)(=O)Nc2ccc(-c3ccc(N4CCCCCC4)nn3)cc2)cc1C`, the Potency was inconclusive [inhibitor, single point].
For `O=C(/C=C/c1ccccc1)Nc1cccc(C(=O)N2CCCCC2)c1`, the Potency was inconclusive [inhibitor, single point].
With `C=C1c2cc3c(cc2NC(=S)N1Cc1ccccc1)OCO3` the Potency was inconclusive [inhibitor, single point].
In the case of `COc1ccc(NC(=O)N(C)C[C@H]2Oc3ccc(NC(=O)Nc4ccc5c(c4)OCO5)cc3C(=O)N([C@H](C)CO)C[C@@H]2C)cc1`, the Potency was “inactive”.
For `CCO[C@@H]1O[C@H](C(COCc2ccccc2)OCc2ccccc2)[C@H](OCc2ccccc2)[C@H]1O` (stereo not given in full), the Potency was inconclusive [inhibitor, single point].
In the case of `Cc1nsc(Nc2ccccc2)c1C#N`, the Potency was inconclusive [inhibitor, single point].
In the case of `O=C(Nc1cccc2ccccc12)/C(Cl)=C/c1ccccc1`, the Potency was inconclusive [inhibitor, single point].
With `COC(=O)Cn1cc(C(=O)c2cccs2)c2ccccc21` the Potency was “inactive”.
With `O=C(OCC(=O)N1CCN(C(=O)c2ccco2)CC1)c1ccccc1NCCO` the Potency was “inactive”.
In the case of `O=C(O)CCn1cc(/C=C2\NC(=S)N(c3ccccc3)C2=O)c(-c2ccc(Br)cc2)n1`, the Potency was “inactive”.
With `COc1cc(S(=O)(=O)N2CCN(C(=O)c3ccco3)CC2)ccc1Cl` the Potency was “inactive”.
In the case of `Cc1ccsc1/C=N/N=C/c1sccc1C`, the Potency was inconclusive [inhibitor, single point].
With `CCCC/C(O)=C1\C(=O)CCCC1=NCCc1c(C)[nH]c2ccc(OC)cc12` the Potency was inconclusive [inhibitor, single point].
With `Cc1cccc(C(=O)Nc2ccc(S(=O)(=O)N(Cc3ccccc3)c3ccccc3)cc2)c1` the Potency was active: 10.3 µM.
For `O=C(Nc1ccccn1)c1ccc2ccccc2c1O`, the Potency was active: 14.6 µM.
For `COc1cc(/C=N/NC(=O)CCn2cnc(-c3ccccc3)c2-c2ccccc2)ccc1O`, the Potency was active: 18.4 µM.
In the case of `Cc1ccc(OC(C)C(=O)N/N=C/c2ccccn2)cc1` (stereo not given), the activity change, negative = growth inhibition was inconclusive: -33.9% [inhibitor].
In the case of `COc1ccccc1-c1nn(-c2ccccc2)cc1C(=O)N1CCN(C(=O)c2ccco2)CC1`, the Potency was inconclusive [inhibitor, single point].
For `CC(C)NC(=O)C1(C)CCN1Cc1cccc(Cl)c1` (stereo not given), the Potency was inconclusive [inhibitor, single point].
For `COc1ccc(CNn2c(-c3cccc(C)c3)nc3ccccc3c2=O)cc1OC`, the Potency was inconclusive [inhibitor, partial curve].
For `CCOC(=O)N1CCN(C(=O)CSc2nc3c(cnn3-c3ccccc3)c(=O)[nH]2)CC1`, the Potency was active: 23.1 µM.
For `CC(=O)c1ccc(NC(=O)Cn2c(=O)nc(-c3ccccc3)c3cc(Cl)ccc32)cc1`, the Potency was “inactive”.
In the case of `O=C(NNC(=O)c1ccc(Br)s1)c1cccc(Cl)c1`, the activity change, negative = growth inhibition was inconclusive: -31.1% [inhibitor].
In the case of `OCCC1CN(Cc2cc(F)ccc2-n2cccn2)CCN1Cc1ccc(F)cc1` (stereo not given), the Potency was “inactive”.
In the case of `CCc1ccc(NC(=O)Nc2nnc(N(C)C3CCCCC3)s2)cc1`, the Potency was inconclusive [inhibitor, full curve, poor fit].
For `O=C1CC(O)(c2ccccc2)C(c2ccccc2)=C1c1ccccc1` (stereo not given), the Potency was inconclusive [inhibitor, single point].
With `Cc1cc2c(cc1C)C(c1ccccc1Br)CC(=O)N2` (stereo not given) the Potency was inconclusive [inhibitor, single point].
With `O=C(O)C1C2CCC(O2)C1C(=O)Nc1ccc(Br)cc1F` (stereo not given) the Potency was “inactive”.
In the case of `COc1cc(C)ccc1OCc1cc(C(=O)N2C[C@H]3CC[C@H]2C3)no1`, the Potency was “inactive”.
With `CSCCC(NC(=O)/C(=C/c1ccco1)NC(=O)c1ccco1)C(=O)O` (stereo not given) the Potency was inconclusive [inhibitor, full curve, poor fit].
